# About 14,000 (4.5%) of roughly 310,000 compounds showed an effect of 50% or more. Effects have a minus sign here. The list shows a part of the results.
# Biological target: human ether-à-go-go-related gene (hERG) potassium channel (human, UniProt Q12809)
# Assay: primary screen, population patch clamp on CHO cells stably expressing hERG
# 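Note: peak tail current of the secondary pulse compared with the same well before compound.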
# human ether-à-go-go-related gene (hERG) potassium channel, sequence (Q12809 whole entry, looked up): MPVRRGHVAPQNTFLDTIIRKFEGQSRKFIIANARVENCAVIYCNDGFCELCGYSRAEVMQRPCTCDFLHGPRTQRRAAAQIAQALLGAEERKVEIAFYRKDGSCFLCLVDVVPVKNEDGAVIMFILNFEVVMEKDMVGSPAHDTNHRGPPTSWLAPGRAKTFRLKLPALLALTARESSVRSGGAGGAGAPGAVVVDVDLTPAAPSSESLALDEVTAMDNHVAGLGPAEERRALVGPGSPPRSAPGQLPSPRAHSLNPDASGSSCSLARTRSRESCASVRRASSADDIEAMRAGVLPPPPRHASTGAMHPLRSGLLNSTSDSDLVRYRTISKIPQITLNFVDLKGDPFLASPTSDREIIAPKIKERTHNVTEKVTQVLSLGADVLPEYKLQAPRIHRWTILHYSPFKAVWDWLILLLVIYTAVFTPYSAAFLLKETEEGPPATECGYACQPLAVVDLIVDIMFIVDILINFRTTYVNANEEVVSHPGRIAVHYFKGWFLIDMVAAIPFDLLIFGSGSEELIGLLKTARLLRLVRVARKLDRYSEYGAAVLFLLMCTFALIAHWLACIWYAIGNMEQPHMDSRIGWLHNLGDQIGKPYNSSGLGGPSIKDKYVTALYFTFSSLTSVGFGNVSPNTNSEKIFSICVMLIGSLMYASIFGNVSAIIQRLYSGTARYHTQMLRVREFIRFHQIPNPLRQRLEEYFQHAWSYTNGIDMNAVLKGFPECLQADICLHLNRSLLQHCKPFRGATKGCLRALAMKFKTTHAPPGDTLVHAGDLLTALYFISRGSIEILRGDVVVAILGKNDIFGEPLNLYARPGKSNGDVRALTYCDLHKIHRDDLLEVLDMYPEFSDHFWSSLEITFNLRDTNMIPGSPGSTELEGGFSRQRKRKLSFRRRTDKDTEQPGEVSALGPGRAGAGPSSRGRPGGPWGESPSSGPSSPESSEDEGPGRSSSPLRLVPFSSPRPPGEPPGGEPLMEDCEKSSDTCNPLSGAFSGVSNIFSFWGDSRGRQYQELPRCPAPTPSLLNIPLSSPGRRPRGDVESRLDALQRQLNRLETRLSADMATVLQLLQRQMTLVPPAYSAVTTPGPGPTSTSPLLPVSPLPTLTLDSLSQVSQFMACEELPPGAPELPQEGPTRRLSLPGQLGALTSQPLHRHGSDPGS
row,Structure (SMILES),"hERG current change (%, negative = inhibition) at 10uM [%]"
1,COC(=O)C1=C(C)N(c2ccc(OC)c(OC)c2)C(=O)C1,20.5
2,O=C1C2C3CCCC3=C3CCCC3C2C(=O)N1c1ccc(F)cc1 (stereo not drawn),2.87
3,CCOC(=O)CCNC(=O)N1CCC(CCC(=O)NCc2ccc(F)cc2)CC1,7.71
4,C=CCN(Cc1cc(OC)ccc1OC)S(=O)(=O)N(C)C,-1.96
5,NS(=O)(=O)c1ccc(CCNC(=O)C(=O)c2c[nH]c3ccccc23)cc1,-14.3
6,Cc1ccc(C(C(=O)NCc2ccccc2)N(C(=O)c2csnn2)c2cccc3ccccc23)o1 (stereo not drawn),-13.2
7,COc1ccc(OCCNC(=O)C(Cc2c[nH]c3ccccc23)NC(C)=O)cc1 (stereo not drawn),7.49
8,CC1(C)CC(=O)c2cnc(NC(=O)CCc3ccccc3)nc2C1,-6.5
9,Cc1ccc2nc(-c3ccc4c(c3)OCCO4)cc(C(=O)O)c2c1,4.86
10,O=S(=O)(c1ccc(-n2cnnn2)cc1)N1CCNCC1,-6.09
11,CC(C)(C)NC(=O)Cc1ccc(S(=O)(=O)N2CCCC2)s1,15.2
12,O=c1oc2cc(Br)ccc2n1Cc1ccccc1,18.6
13,CN(C(=O)CSC1=NCCS1)c1ccccc1,11.9
14,CCC(Sc1nc2n[nH]c(C)c2c(=N)n1-c1cccc(Cl)c1)C(=O)NCCOC (stereo not drawn),-23.4
15,COc1ccccc1NC(=O)N1CCCC1C(=O)NCc1cccs1 (stereo not drawn),0.509
16,COc1cc(OC)cc(-c2nc(-c3ccc(Br)cc3)no2)c1,11
17,Cc1ccc(C=Nc2ccc(N(C)C)cc2)o1,-0.267
18,Cc1ccnc(SCCn2c(N3CCN(c4ccccc4)CC3)nc3c2c(=O)[nH]c(=O)n3C)n1,-17.3
19,COc1ccc(Cl)cc1S(=O)(=O)NCc1cccnc1,-1.75
20,Cc1nc(-c2ccc(F)cc2)c(CC(=O)N(C)CC(=O)Nc2ccccc2Cl)s1,15.8
21,Cc1ccc(C(=O)NCC(=O)N2CCCCCC2)cc1,21.5
22,COCC(C)OC(=O)c1c(N)n(-c2ccc(OC)c(OC)c2)c2nc3ccccc3nc12 (stereo not drawn),-27.1
23,Cc1ccc(-c2ccnc3nc(-n4cccc4)nn23)o1,8.59

row,Structure (SMILES),"hERG current change (%, negative = inhibition) at 10uM [%]"
1,C#CCSc1n[nH]c(=O)n1-c1cccc(C(F)(F)F)c1,-0.283
2,COC(=O)C1=C(c2ccc(-c3ccccc3)c(F)c2)C[C@@H]2CC[C@H]1N2C(=O)NCCc1ccccc1,25
3,O=S(=O)(c1ccc(NC(=S)N/N=C/c2ccc(O)c(O)c2)cc1)N1CCOCC1,21.3
4,O=c1[nH]c(CN2CCN(S(=O)(=O)c3ccc(Cl)cc3)CC2)nc2cc(Cl)ccc12,-11.8
5,CCn1c(COc2ccc(=O)n(-c3ccccc3)n2)n[nH]c1=S,23.3
6,Cc1cccc(C(=O)N(NC(=O)Oc2ccccc2)C(C)(C)C)c1,-13
7,Cc1ccn2c(C(=O)NNC(=O)Nc3ccc(Cl)cc3)c(C)nc2c1,-12.3
8,CC(OC(=O)c1cc(S(=O)(=O)N2CCOCC2)ccc1Br)C(=O)N1CCOCC1 (stereo not drawn),-12
9,COc1ccccc1-c1nn2c(C3COc4ccccc4O3)nnc2s1 (stereo not drawn),-1.05
10,O=C(c1ccccc1)c1ccc(N2CCN(C(=O)c3cccc(F)c3F)CC2)c(F)c1,-37.9
11,O=C(Nc1ccc(S(=O)(=O)NCc2ccco2)cc1)c1ccc2ccccc2n1,-0.235
12,COc1cccc(CN(C(=O)c2ccccc2)C2CCS(=O)(=O)C2)c1 (stereo not drawn),-0.754
13,COC(=O)C(Cc1ccccc1)NC(=O)CNS(=O)(=O)c1ccc(Br)cc1 (stereo not drawn),-18.9
14,CCCc1nc2sc3c(c2c(=O)n1N)CCC3,-3.93
15,C=CCN(CC=C)Cc1ccc(C(=O)OC)o1,-9.34
16,Cc1ccc(F)cc1NC(=O)Nc1cc(C(C)(C)C)nn1C,15.6
17,CSC(=NC#N)N1CCN(c2ccc([N+](=O)[O-])cc2)CC1,-77
18,CC(C)[C@H](NC(N)=O)C(=O)Nc1ccc(OCc2ccccc2)cc1,4.46
19,Cc1cccc(NC(=O)c2ccc(NCCO)c([N+](=O)[O-])c2)n1,-48.8
20,Cc1ccc(CNC(=O)C2CCCC2)cc1,8.93
21,Nc1c(C(=O)N2CCOCC2)sc2nc3c(cc12)CCCC3,10.7
22,Cc1ccc(CN2CCC(c3cc(-c4cccs4)n[nH]3)CC2)cc1,-82.1
